Paper PMC7383879, “HSI2/VAL1 and HSL1/VAL2 function redundantly to repress DOG1 expression in Arabidopsis seeds and seedlings”
Results are given in words; binding and its absence hold for the method and conditions named. Binding seen in cells or lysates may run through a third protein. Some binding calls cover weakened binding; strength is not graded here. Tags and fused reporters may be left off the sequences shown.

T1: HIGH‐LEVEL EXPRESSION OF SUGAR INDUCIBLE2 (HSI2), BiFC fusion (Arabidopsis thaliana) (UniProt Q8W4L5)
T1 sequence: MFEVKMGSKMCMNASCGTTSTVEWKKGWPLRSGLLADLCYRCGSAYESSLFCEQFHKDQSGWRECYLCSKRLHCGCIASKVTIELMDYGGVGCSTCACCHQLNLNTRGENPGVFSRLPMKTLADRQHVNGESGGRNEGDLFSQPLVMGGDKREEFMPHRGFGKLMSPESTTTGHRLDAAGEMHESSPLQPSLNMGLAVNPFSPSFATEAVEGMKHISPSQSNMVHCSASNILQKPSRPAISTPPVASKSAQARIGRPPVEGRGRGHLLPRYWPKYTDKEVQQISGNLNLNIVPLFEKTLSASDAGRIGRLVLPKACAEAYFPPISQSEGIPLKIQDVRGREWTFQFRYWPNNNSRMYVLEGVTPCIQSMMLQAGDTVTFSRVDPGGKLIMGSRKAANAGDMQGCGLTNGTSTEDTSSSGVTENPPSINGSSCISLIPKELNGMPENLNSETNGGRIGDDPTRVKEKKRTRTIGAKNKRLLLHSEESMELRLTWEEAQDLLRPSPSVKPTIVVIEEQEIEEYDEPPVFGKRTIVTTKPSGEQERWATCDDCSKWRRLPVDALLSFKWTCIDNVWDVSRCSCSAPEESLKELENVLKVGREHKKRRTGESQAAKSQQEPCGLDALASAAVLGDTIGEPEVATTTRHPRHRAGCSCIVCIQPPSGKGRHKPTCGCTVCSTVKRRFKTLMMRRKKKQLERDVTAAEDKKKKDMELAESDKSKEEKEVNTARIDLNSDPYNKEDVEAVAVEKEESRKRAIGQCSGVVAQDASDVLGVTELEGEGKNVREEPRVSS

T2: HSI2‐LIKE1 (HSL1), BiFC fusion (Arabidopsis thaliana) (UniProt Q5CCK4)
T2 sequence: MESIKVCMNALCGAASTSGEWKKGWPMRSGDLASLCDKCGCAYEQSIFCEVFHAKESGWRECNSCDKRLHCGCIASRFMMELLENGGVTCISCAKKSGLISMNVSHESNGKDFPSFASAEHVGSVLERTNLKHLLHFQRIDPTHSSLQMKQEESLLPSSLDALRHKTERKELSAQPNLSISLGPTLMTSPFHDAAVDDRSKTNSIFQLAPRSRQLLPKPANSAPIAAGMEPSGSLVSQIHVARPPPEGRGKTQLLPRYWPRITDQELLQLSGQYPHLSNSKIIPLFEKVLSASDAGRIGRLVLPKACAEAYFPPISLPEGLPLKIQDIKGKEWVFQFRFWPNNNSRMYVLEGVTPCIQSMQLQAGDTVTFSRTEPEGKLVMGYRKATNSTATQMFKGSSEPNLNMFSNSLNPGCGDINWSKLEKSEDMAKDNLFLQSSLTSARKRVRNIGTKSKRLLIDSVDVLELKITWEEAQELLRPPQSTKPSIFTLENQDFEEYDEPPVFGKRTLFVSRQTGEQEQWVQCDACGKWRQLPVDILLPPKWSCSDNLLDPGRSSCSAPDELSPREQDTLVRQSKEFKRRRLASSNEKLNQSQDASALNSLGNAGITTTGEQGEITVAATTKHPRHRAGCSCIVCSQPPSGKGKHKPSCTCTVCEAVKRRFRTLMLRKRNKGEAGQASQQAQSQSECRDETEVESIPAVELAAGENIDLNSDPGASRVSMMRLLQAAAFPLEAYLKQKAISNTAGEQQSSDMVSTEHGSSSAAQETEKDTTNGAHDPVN

T3: HSL1‐GFP (35S:HSL1‐GFP) for co-immunoprecipitation (Arabidopsis thaliana) (UniProt Q5CCK4)
T3 sequence: T2 sequence

T4: HSI2‐GFP (35S:HSI2‐GFP) for co-immunoprecipitation (Arabidopsis thaliana) (UniProt Q8W4L5)
T4 sequence: T1 sequence

B1: HIGH‐LEVEL EXPRESSION OF SUGAR INDUCIBLE2 (HSI2), BiFC fusion (protein, UniProt Q8W4L5 1-790)
chain: T1 sequence
B2: LIKE HETEROCHROMATIN PROTEIN1 (LHP1), BiFC fusion (protein, UniProt Q946J8 1-445)
chain: MKGASGAVKKKPQVLNEAGEAETAVETVGESRKISGDGGFGSDDGGGGGGGGSGESILREIGDDRPTEDGDEEEEEDEDEDDGGDEEDEEGEGEGGQEERPKLDEGFYEIEAIRRKRVRKGKVQYLIKWRGWPETANTWEPLENLQSIADVIDAFEGSLKPGKPGRKRKRKYAGPHSQMKKKQRLTSTSHDATEKSDSSTSLNNSSLPDIPDPLDLSGSSLLNRDVEAKNAYVSNQVEANSGSVGMARQVRLIDNEKEYDPTLNELRGPVNNSNGAGCSQGGGIGSEGDNVRPNGLLKVYPKELDKNSRFIGAKRRKSGSVKRFKQDGSTSNNHTAPTDQNLTPDLTTLDSFGRIARMGNEYPGVMENCNLSQKTKIEELDITKILKPMSFTASVSDNVQEVLVTFLALRSDGKEALVDNRFLKAHNPHLLIEFYEQHLKYNRTP
B3: LHP1‐myc (35S:LHP1‐myc) for co-immunoprecipitation (protein, UniProt Q946J8 1-445)
chain: B2 chain
B4: CURLY LEAF (CLF), BiFC fusion (protein, UniProt P93831 1-902)
chain: MASEASPSSSATRSEPPKDSPAEERGPASKEVSEVIESLKKKLAADRCISIKKRIDENKKNLFAITQSFMRSSMERGGSCKDGSDLLVKRQRDSPGMKSGIDESNNNRYVEDGPASSGMVQGSSVPVKISLRPIKMPDIKRLSPYTTWVFLDRNQRMTEDQSVVGRRRIYYDQTGGEALICSDSEEEAIDDEEEKRDFLEPEDYIIRMTLEQLGLSDSVLAELASFLSRSTSEIKARHGVLMKEKEVSESGDNQAESSLLNKDMEGALDSFDNLFCRRCLVFDCRLHGCSQDLIFPAEKPAPWCPPVDENLTCGANCYKTLLKSGRFPGYGTIEGKTGTSSDGAGTKTTPTKFSSKLNGRKPKTFPSESASSNEKCALETSDSENGLQQDTNSDKVSSSPKVKGSGRRVGRKRNKNRVAERVPRKTQKRQKKTEASDSDSIASGSCSPSDAKHKDNEDATSSSQKHVKSGNSGKSRKNGTPAEVSNNSVKDDVPVCQSNEVASELDAPGSDESLRKEEFMGETVSRGRLATNKLWRPLEKSLFDKGVEIFGMNSCLIARNLLSGFKSCWEVFQYMTCSENKASFFGGDGLNPDGSSKFDINGNMVNNQVRRRSRFLRRRGKVRRLKYTWKSAAYHSIRKRITEKKDQPCRQFNPCNCKIACGKECPCLLNGTCCEKYCGCPKSCKNRFRGCHCAKSQCRSRQCPCFAADRECDPDVCRNCWVIGGDGSLGVPSQRGDNYECRNMKLLLKQQQRVLLGISDVSGWGAFLKNSVSKHEYLGEYTGELISHKEADKRGKIYDRENCSFLFNLNDQFVLDAYRKGDKLKFANHSPEPNCYAKVIMVAGDHRVGIFAKERILAGEELFYDYRYEPDRAPAWAKKPEAPGSKKDENVTPSVGRPKKLA
B5: HSI2‐LIKE1 (HSL1), BiFC fusion (protein, UniProt Q5CCK4 1-780)
chain: T2 sequence

What was measured:
[1] = molecular target: T1, HIGH‐LEVEL EXPRESSION OF SUGAR INDUCIBLE2 (HSI2), BiFC fusion (Arabidopsis thaliana); assay: split reporter; BiFC: nEYFP and cEYFP fusions, Agrobacterium GV2260 co-infiltrated into tobacco (N. benthamiana) leaves; YFP fluorescence by confocal microscopy after 2 d
[2] = molecular target: T2, HSI2‐LIKE1 (HSL1), BiFC fusion (Arabidopsis thaliana); assay: as above
[3] = molecular target: T3, HSL1‐GFP (35S:HSL1‐GFP) for co-immunoprecipitation (Arabidopsis thaliana); assay: co-IP; total protein of agroinfiltrated tobacco leaves (50 mM Tris-HCl pH 7.5, 150 mM NaCl, 2 mM EDTA, 10% glycerol, 1% Triton X-100); anti-GFP mAb-magnetic beads overnight at 4°C; immunoblot with anti-myc
[4] = molecular target: T4, HSI2‐GFP (35S:HSI2‐GFP) for co-immunoprecipitation (Arabidopsis thaliana); assay: as above

Row | Binder | binding [1] | binding [2] | binding [3] | binding [4]
1 | B1 | binds | binds | – | –
2 | B2 | binds | binds | – | –
3 | B3 | – | – | binds | binds
4 | B4 | binds | binds | – | –
5 | B5 | – | binds | – | –
